Data reported in patent US5607914A, “Synthetic antimicrobial peptides” (Pioneer Hi-Bred International, Inc., priority 1994, dated 1997).
Values after ≈ are worked out from the molar mass of the structure shown. Where two headings read alike, the source gives them in different places. Not every detail of the peptide structures is certain; ends, links or a residue may be inferred. Some compounds share one wording; it may come from a single statement. No end group written: not given here.

Assays:
A. flavus = assay: Antifungal activity of synthetic peptides (MIC/MCIC); type: cell-based
F. graminearum = type: cell-based
F. moniliforme = assay: Antifungal activity of synthetic peptides (MIC/MCIC); type: cell-based
[1] = Antimicrobial activity (general statement); type: cell-based; details: minimum functional fragment
E. coli [2] = system: E. coli
[3] = system: gram negative and gram positive organisms; assay: Activity against other gram negative and gram positive organisms; type: cell-based
P. syringae = assay: Antimicrobial activity expressed as % inhibition of growth; type: cell-based
E. stewartii = assay: as above; type: cell-based
E. coli [4] = assay: as above; type: cell-based
[5] = F. graminearum, score of 1 or greater (25% growth inhibition)
[6] = F. graminearum, score of 3 or greater (≥80% growth inhibition)

With CC[C@H](C)[C@H](NC(=O)[C@H](C)NC(=O)[C@H](CCCNC(=N)N)NC(=O)[C@H](Cc1ccc(O)cc1)NC(=O)[C@H](C)NC(=O)CN)C(=O)N[C@@H](CCCNC(=N)N)C(=O)N[C@@H](Cc1c[nH]cn1)C(=O)N[C@H](C(=O)N1CCC[C@H]1C(=O)N[C@@H](CCCNC(=N)N)C(=O)N[C@@H](CCCNC(=N)N)C(=O)N[C@H](C(=O)N[C@@H](CCCNC(=N)N)C(=O)O)[C@@H](C)CC)[C@@H](C)CC [Peptide 21] the MIC (A. flavus; A. flavus, concentration achieving a score of 1 or greater (25% growth inhibition)) was 30 µg/mL (≈ 17.3 µM), the MCIC (A. flavus; A. flavus, concentration achieving a score of 3 or greater (≥80% growth inhibition)) was greater than 80 µg/mL and the MCIC (F. graminearum) was greater than 80. It also gave an MIC (F. graminearum) of 40, an MIC (F. moniliforme; F. moniliforme, score of 1 or greater (25% growth inhibition)) of 15 µg/mL (≈ 8.65 µM) and an MCIC (F. moniliforme; F. moniliforme, score of 3 or greater (≥80% growth inhibition)) greater than 80 µg/mL.

With IQRVAQKLKKALRALARHWKRAL [Peptide 17] the MIC (F. graminearum; [5]) was 7.5 µg/mL and the MCIC (F. graminearum; [6]) was 15 µg/mL.

Work on IRALQRAVRHPRAIRRIYRGWKKAIR [Peptide 18] yielded an MIC (F. graminearum; [5]) of 10 µg/mL and an MCIC (F. graminearum; [6]) of 20 µg/mL.

In the case of “IRALQRAVRHPRAIRRIYRGWKKAIRAGPGVTIGIAHAKSQLW [Peptide 6]”, the MIC (F. graminearum; [5]) is reported as 10 µg/mL and the MCIC (F. graminearum; [6]) is reported as 20 µg/mL.

“KKIEKAIKHIPKKIKAGPGVTIGIAHAKSQLW [Peptide 1]” showed an MIC (F. graminearum; [5]) of 17 µg/mL and an MCIC (F. graminearum; [6]) greater than 40 µg/mL.

For “KKIEKAIKHIPKKIKLKKALRALARHWK [Peptide 10]”, the MIC (F. graminearum; [5]) was 10 µg/mL and the MCIC (F. graminearum; [6]) was 20 µg/mL.

“KLIRKLIRWLRRKIRALQRAVAGPGVTIGIAHAKSQLW [Peptide 7]” gave an MIC (F. graminearum; [5]) of 10 µg/mL and an MCIC (F. graminearum; [6]) of 40 µg/mL.

In the case of KLKKALRALARHWK [Peptide 16], the antimicrobial activity [1] is reported as “good antimicrobial activity”, the MIC (F. graminearum; [5]) is reported as 10 µg/mL and the MCIC (F. graminearum; [6]) is reported as 20 µg/mL.

“KLKKALRALARHWKAGPGVTIGIAHAKSQLW [Peptide 2]” gave an MIC (A. flavus) of 40, an MIC (F. graminearum; [5]) of 14 µg/mL and an MCIC (F. graminearum; [6]) of 19 µg/mL.

In the case of KLKKALRWLARHAK [Peptide 20], the MCIC (E. coli [2]) is reported as 25 μg per ml, the MIC (F. graminearum; [5]) is reported as 3.75 µg/mL and the MCIC (F. graminearum; [6]) is reported as 10 µg/mL. The MCIC (C. nebraskense) was 12.5 μg per ml and the “activity against other gram negative and gram positive organisms” value [3] was “significant activity”.

KWKKALRALARHLK [Peptide 19] showed an MCIC (E. coli [2]) of 25 μg per ml, an MIC (F. graminearum; [5]) of 3.74 µg/mL and an MCIC (F. graminearum; [6]) of 10 µg/mL. For the same compound, the MCIC (C. nebraskense) was 12.5 μg per ml and the “activity against other gram negative and gram positive organisms” value [3] was “significant activity”.

In the case of “QRAVKKIEKAIKHIPKKIKIRALAGPGVTIGIAHAKSQLW [Peptide 4]”, the MIC (F. graminearum; [5]) is reported as 13 µg/mL and the MCIC (F. graminearum; [6]) is reported as 51 µg/mL.

In the case of “QRAVRRIYRAIRHIPRRIRIRALAGPGVTIGIAHAKSQLW [Peptide 3]”, the “% Inhibition of Growth” value (P. syringae; 3.00 μg/ml) is reported as 0%, the “% Inhibition of Growth” value (P. syringae; 6.25 μg/ml) is reported as 11% and the “% Inhibition of Growth” value (P. syringae; 12.5 μg/ml) is reported as 30%. For the same compound, the “% Inhibition of Growth” value (P. syringae; 25 μg/ml) was 48%, the “% Inhibition of Growth” value (P. syringae; 50 μg/ml) was 52% and the “% Inhibition of Growth” value (E. stewartii; 3.00 μg/ml) was 0%. The “% Inhibition of Growth” value (E. stewartii; 6.25 μg/ml) was 0%, the “% Inhibition of Growth” value (E. stewartii; 12.5 μg/ml) was 49% and the “% Inhibition of Growth” value (E. stewartii; 25 μg/ml) was 80%. For the same compound, the “% Inhibition of Growth” value (E. stewartii; 50 μg/ml) was 100%, the MIC (F. graminearum; [5]) was 13 µg/mL and the MCIC (F. graminearum; [6]) was 26 µg/mL. For the same compound, the MCIC (F. moniliforme) was 26, the MIC (F. moniliforme) was 13 and the “% Inhibition of Growth” value (E. coli [4]; 3.00 μg/ml) was 0%. For the same compound, the “% Inhibition of Growth” value (E. coli [4]; 6.25 μg/ml) was 0%, the “% Inhibition of Growth” value (E. coli [4]; 12.5 μg/ml) was 0% and the “% Inhibition of Growth” value (E. coli [4]; 25 μg/ml) was 0%. The “% Inhibition of Growth” value (E. coli [4]; 50 μg/ml) was 0%.

For RRIYRAIRHIPRRIR [Peptide 22], the MCIC (A. flavus) was greater than 80, the MIC (A. flavus) was 15 and the MCIC (E. coli [2]) was greater than 100 μg per ml. It also gave an MIC (F. graminearum; [5]) of 20 µg/mL, an MCIC (F. graminearum; [6]) of 40 µg/mL and an MCIC (C. nebraskense) of 50 μg per ml. The “activity against other gram negative and gram positive organisms” value [3] was “significant activity”, the MCIC (F. moniliforme) was 40 and the MIC (F. moniliforme) was 10.

In the case of “RRIYRAIRHIPRRIRGWLRRIGRRIERVGQH [Peptide 9]”, the MCIC (A. flavus) is reported as 80, the MIC (A. flavus) is reported as 15 and the MIC (F. graminearum; [5]) is reported as 10 µg/mL. For the same compound, the MCIC (F. graminearum; [6]) was 20 µg/mL, the MCIC (F. moniliforme) was 15 and the MIC (F. moniliforme) was 10.
